Results taken from the supplement of paper PMC10670038.
Where a name gives a salt, the structure may show the parent alone. ± gives the standard deviation of the averaged measurements. In all, about 2,000 compounds were measured (“relative cell viability vs DMSO, compound + 0.2 uM CuET”: median about 1, lowest 2% from about 0.25 on). The list shows a part of the results.

These molecules were tested on TE10 (assay: relative cell viability vs DMSO, compound + 0.2 uM CuET (fraction); TE10 is an esophageal squamous carcinoma line; higher = less cytotoxic). Conditions: 2 µM; co-treatment: CuET (bis(diethyldithiocarbamate)copper) 0.2 uM; 48 h.
Procedure: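 TE10 ESCC cells (1,000/well, 384-well plates) were treated with Selleck bioactive library compounds at 2 uM combined with 0.2 uM CuET (copper diethyldithiocarbamate) for 48 h. Viability was read by CellTiter-Glo and expressed relative to DMSO wells. Two technical replicates (A, B).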

Cc1cccc(C(C)c2c[nH]cn2)c1C (centres undefined) [Medetomidine HCl] and Cc1cccc([C@H](C)c2c[nH]cn2)c1C [Dexmedetomidine HCl (Precedex)] are within error of each other in relative cell viability: 1.11 ± 0.056 for the first, 1 ± 0.16 for the second.

O=S(=O)(CC1CS1)c1ccc(Oc2ccccc2)cc1 (centres undefined) and O=S(=O)(F)Cc1ccccc1 are within error of each other in relative cell viability: 0.936 ± 0.07 for the first, 0.716 ± 0.51 for the second.

O=c1[nH]c2ccccc2n1CCCN1CCC(n2c(=O)[nH]c3cc(Cl)ccc32)CC1 [Domperidone] and Cc1cc(C(=O)CN2CCCC2)c(C)n1-c1ccc(F)cc1 are within error of each other in relative cell viability: 1.03 ± 0.12 for the first, 0.959 ± 0.085 for the second.

Compared with c1cc2c(cc1[C@H]1OC[C@H]3[C@@H]1CO[C@@H]3c1ccc3c(c1)OCO3)OCO2 [Sesamin], O=C(Oc1ccc([N+](=O)[O-])cc1)N1CCC(C(O)(c2ccc3c(c2)OCO3)c2ccc3c(c2)OCO3)CC1 is lower in relative cell viability: 1.09 ± 0.084 for the first, 0.827 ± 0.12 for the second.

Cc1cc(O)ccc1Cl [Chlorocresol] and NCCc1c[nH]c2ccc(O)cc12 [Serotonin HCl] are within error of each other in relative cell viability: 1.152 ± 0.0014 for the first, 1.11 ± 0.063 for the second.

Fc1cc(F)c2c(c1)[C@H]1C=CC[C@H]1C(c1cccnc1)N2 (some centres undefined) [Golgicide A] and C[C@@]12N[C@@H](Cc3ccccc31)c1ccccc12 [(-)-MK 801 Maleate] are within error of each other in relative cell viability: 0.95 ± 0.2 for the first, 1.22 ± 0.21 for the second.

CN1[C@@H]2CC[C@H]1C[C@@H](OC(=O)[C@H](CO)c1ccccc1)C2 [Hyoscyamine] and C[N+]1(C)[C@@H]2C[C@@H](OC(=O)[C@H](CO)c3ccccc3)C[C@H]1[C@@H]1O[C@@H]12 [Methscopolamine] are within error of each other in relative cell viability: 1.2 ± 0.12 for the first, 0.995 ± 0.097 for the second.

Nc1nc(N)nc(NC2CC2)n1 [Cyromazine] and Cc1c(Cl)c(OCC(=O)N2CCN(C)CC2)nc2sc(C(=O)NC3CC3)c(N)c12 are within error of each other in relative cell viability: 1.11 ± 0.036 for the first, 1.07 ± 0.013 for the second.

NCCc1ccc(S(=O)(=O)F)cc1 and NCC(O)c1ccc(O)cc1 (racemic) [(+,-)-Octopamine HCl] are within error of each other in relative cell viability: 1.16 ± 0.088 for the first, 0.697 ± 0.56 for the second.

CCC(COC(=O)c1cc(OC)c(OC)c(OC)c1)(c1ccccc1)N(C)C (centres undefined) [Trimebutine] and CCN(C)C(=O)Oc1cccc([C@H](C)N(C)C)c1 [Rivastigmine Tartrate] are within error of each other in relative cell viability: 0.988 ± 0.092 for the first, 1.12 ± 0.097 for the second.

Compared with C/C=C(\C)C(=O)N[C@@H](c1ccccc1)[C@@H](O)C(=O)O[C@H]1C[C@@]2(O)[C@@H](OC(=O)c3ccccc3)[C@@H]3[C@]4(OC(C)=O)CO[C@@H]4C[C@H](O)[C@@]3(C)C(=O)[C@H](OC(C)=O)C(=C1C)C2(C)C [Cephalomannine], CC(=O)OC12COC1CC(O)C1(C)C(=O)C(O)C3=C(C)C(O)CC(O)(C(OC(=O)c4ccccc4)C21)C3(C)C (centres undefined) [10-Deacetylbaccatin-III] is higher in relative cell viability: 0.681 ± 0.016 for the first, 0.849 ± 0.011 for the second.

COc1ccc2c(c1)/C(=C/c1cnc[nH]1)C(=O)N2 and CCC1(c2ccc(N)cc2)CCC(=O)NC1=O (centres undefined) [Aminoglutethimide] are within error of each other in relative cell viability: 1.12 ± 0.25 for the first, 1.06 ± 0.13 for the second.

Compared with COc1ccc(C[C@H]2NC[C@H](O)[C@H]2OC(C)=O)cc1 [Anisomycin], CC(=O)Nc1ccc(OC[C@](C)(O)C(=O)Nc2ccc([N+](=O)[O-])c(C(F)(F)F)c2)cc1 [Andarine] is higher in relative cell viability: 0.498 ± 0.052 for the first, 1.26 ± 0.14 for the second.

C[C@@H]1CC[C@H]2[C@@H](C)C(=O)O[C@@H]3O[C@@]4(C)CC[C@@H]1[C@]32OO4 [Artemisinin] and C[C@]12CC[C@H](O)C[C@@H]1CC[C@@H]1[C@@H]2CC[C@]2(C)C(=O)CC[C@@H]12 [Epiandrosterone] are within error of each other in relative cell viability: 1.08 ± 0.11 for the first, 1.22 ± 0.18 for the second.

Going from CCC1(c2cccc(O)c2)CCCCN(C)C1 (centres undefined) [Meptazinol HCl] to Cc1cccc(C)c1NC1=NCCCS1 [Xylazine HCl], the relative cell viability rises from 0.869 ± 0.24 to 1.14 ± 0.024.

Cc1cccc([C@H](C)c2c[nH]cn2)c1C [Dexmedetomidine] and C[C@]12N[C@H](Cc3ccccc31)c1ccccc12 [MK-801 (Dizocilpine)] are within error of each other in relative cell viability: 1.13 ± 0.0081 for the first, 1.29 ± 0.44 for the second.

C#C[C@]1(O)C=C[C@H]2[C@@H]3CCC4=CC(=O)CC[C@@H]4[C@H]3CC[C@@]21CC [Gestodene] and C[C@]12CC[C@H]3[C@@H](CC[C@@]45O[C@@H]4C(O)=C(C#N)C[C@]35C)[C@@H]1CC[C@@H]2O [Trilostane] are within error of each other in relative cell viability: 0.906 ± 0.19 for the first, 1.17 ± 0.29 for the second.

NCC(=O)O.[C-]#[O+].[C-]#[O+].[C-]#[O+].[Cl][Ru] and NC(=O)CN1CCCC1=O [Piracetam] are within error of each other in relative cell viability: 1.12 ± 0.15 for the first, 1.23 ± 0.088 for the second.

Compared with O=P1(NCCCl)OCCCN1CCCl (centres undefined) [Ifosfamide], CC(C)N(CCNC(=O)CN1CCCC1=O)C(C)C [Pramiracetam] is lower in relative cell viability: 1.22 ± 0.034 for the first, 1.03 ± 0.092 for the second.

Compared with O=C1CCC[C@@H]2[C@H]3CCCN4CCC[C@@H](CN12)[C@@H]34 [(+)-Matrine], C[C@@H]1O[C@@H](O[C@H]2C[C@@H](O)[C@]3(CO)[C@H]4[C@H](O)C[C@]5(C)[C@@H](C6=CC(=O)OC6)CC[C@]5(O)[C@@H]4CC[C@]3(O)C2)[C@H](O)[C@H](O)[C@H]1O [Ouabain] is lower in relative cell viability: 1.07 ± 0.035 for the first, 0.813 ± 0.021 for the second.

Cc1cc(SCc2sc(-c3ccc(C(F)(F)F)c(F)c3)nc2C)ccc1OCC(=O)O and C[C@](O)(COc1ccc(C#N)cc1)C(=O)Nc1ccc(C#N)c(C(F)(F)F)c1 are within error of each other in relative cell viability: 1.14 ± 0.071 for the first, 1.13 ± 0.095 for the second.

CC(C)(C)[C@]1(O)CC2OC(=O)CC23C(=O)OC2OC(=O)[C@H](O)C231 (some centres undefined) [Bilobalide] and CN(C)C(=O)Oc1cc(OC(=O)N(C)C)cc(C(O)CNC(C)(C)C)c1 (centres undefined) [Bambuterol HCl] are within error of each other in relative cell viability: 1.14 ± 0.047 for the first, 1.08 ± 0.077 for the second.

O=C(O[C@H]1C[N+]2(CCCOc3ccccc3)CCC1CC2)C(O)(c1cccs1)c1cccs1 [Aclidinium Bromide] and CNCC(=O)c1ccc(O)c(O)c1 [Adrenalone HCl] are within error of each other in relative cell viability: 1.08 ± 0.13 for the first, 0.976 ± 0.018 for the second.

COC(=O)C1=CCCN(C)C1 [Arecoline] and CN1C2CC(O)CC1C1OC12 (centres undefined) [Scopine] are within error of each other in relative cell viability: 1.02 ± 0.13 for the first, 0.887 ± 0.11 for the second.

Molecule Cc1c(N)nc(C(CC(N)=O)NCC(N)C(N)=O)nc1C(=O)NC(C(=O)NC(C)C(O)C(C)C(=O)NC(C(=O)NCCc1nc(-c2nc(C(=O)NCCC[S+](C)C)cs2)cs1)C(C)O)C(O[C@@H]1O[C@@H](CO)[C@@H](O)[C@H](O)[C@@H]1O[C@H]1O[C@H](CO)[C@@H](O)[C@H](OC(N)=O)[C@@H]1O)c1cnc[nH]1 (some centres undefined) [Bleomycin Sulfate] has a relative cell viability of 1.07 ± 0.12.
